# Test results: the supplement of paper PMC4166925
# ± gives the standard deviation of the averaged measurements. In all, about 33,000 sequences were measured (“E-score (dimensionless, -0.5 to 0.5)”: median about -0.049, highest 2% from about 0.37 on). The list shows a part of the results.
# System: T1, PmTbr T-box DNA-binding domain (GST fusion)
# T1 sequence: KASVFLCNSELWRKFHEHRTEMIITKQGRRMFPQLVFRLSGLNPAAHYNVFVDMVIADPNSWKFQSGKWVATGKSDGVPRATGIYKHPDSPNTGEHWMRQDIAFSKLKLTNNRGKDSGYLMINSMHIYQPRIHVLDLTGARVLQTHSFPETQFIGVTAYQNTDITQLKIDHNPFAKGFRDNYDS
# Assay: PBM E-score of 8-mer (E-score (dimensionless, -0.5 to 0.5)); Tbr is Tbrain of the sea star Patiria miniata (Pm) or the sea urchin Strongylocentrotus purpuratus (Sp); higher = stronger binding preference; most listed sequences are background and not binding sites
# Settings: the construct has about 5 more residues each side
# Outline: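 Primer extension turned Universal Agilent oligonucleotide arrays double-stranded. They were incubated with 200 nM protein in PBS (pH 7.5); the protein was a GST-fused Tbr T-box DNA-binding domain expressed in BL21 E. coli at 20 °C and purified on glutathione. Every ungapped 8-mer was scored from the scanned, quantified probe intensities, and the Universal PBM Analysis Suite gave each an enrichment E-score averaged over duplicate arrays.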
row,Sequence,PBM E-score of 8-mer
1,AGCAAAGC,-0.101 ± 0.1
2,CCTCACGA,-0.0676 ± 0.027
3,TGCGAAAA,0.391 ± 0.03
4,GTCCGGGA,-0.176 ± 0.0028
5,ATAATTCC,-0.198 ± 0.036
6,ATCTCACA,0.372 ± 0.021
7,CCAATATC,-0.046 ± 0.043
8,ACCTACCC,0.274 ± 0.0016
9,AAGAGAGG,-0.172 ± 0.0039
10,GAAAAGTC,0.075 ± 0.077
11,AGAATGCT,-0.103 ± 0.027
12,AAATGTTG,-0.0162 ± 0.038
13,TACATGGA,-0.0618 ± 0.0043
14,CCAGCCAC,0.0685 ± 0.028
15,ATTATTGA,-0.132 ± 0.072
16,GAGCCTAC,-0.223 ± 0.082
17,ATGAAACG,-0.217 ± 0.089
18,CCCCGTAA,0.0991 ± 0.072
19,CAAGCGCC,-0.172 ± 0.049
20,CACAGGAC,0.0835 ± 0.033
21,AGGGTTGC,-0.0644 ± 0.0023
22,AGTAGTTC,0.0935 ± 0.042

row,Sequence,PBM E-score of 8-mer
1,GTCGGGCA,0.17 ± 0.061
2,ACCTAGAG,0.0254 ± 0.044
3,ACTTTAGG,-0.0957 ± 0.054
4,AAATCGAT,-0.128 ± 0.094
5,CTTTGCAA,0.0814 ± 0.088
6,CCTCTCAG,-0.14 ± 0.047
7,GACTCCGC,-0.0515 ± 0.023
8,GGCGCTAA,0.426 ± 0.0098
9,AGACGTTG,-0.0868 ± 0.016
10,ACCGGAAC,-0.187 ± 0.053
11,ACCCGTTG,0.066 ± 0.13
12,GAATATAA,-0.0943 ± 0.03
13,CTCGGGTC,-0.132 ± 0.064
14,AGGAGGCC,-0.297 ± 0.034
15,CGGTAATA,-0.308 ± 0.005
16,GATACTAC,-0.0683 ± 0.012
17,ATAGCTTC,-0.283 ± 0.0087
18,AGTAACCC,-0.134 ± 0.005
19,TTACGAAA,-0.0961 ± 0.0063
20,AACTATTG,-0.075 ± 0.054
21,AAGCCATT,-0.111 ± 0.099
22,CCCAAAGC,-0.168 ± 0.015

row,Sequence,PBM E-score of 8-mer
1,AGTGACAA,0.4196 ± 0.0018
2,CCTCTCCG,-0.084 ± 0.01
3,ACGACTCG,0.264 ± 0.016
4,TCACGACA,0.276 ± 0.012
5,AGTAGGCA,-0.17 ± 0.099
6,AGATGAGG,-0.231 ± 0.012
7,AGGAGTGC,0.109 ± 0.024
8,GAAACCTC,-0.152 ± 0.14
9,ACAGAAAC,0.0765 ± 0.034
10,CAGGTAAC,0.128 ± 0.019
11,CGTATCTA,-0.21 ± 0.063
12,CCCTCAAC,-0.1 ± 0.025
13,CGATATCG,0.171 ± 0.041
14,CCATGTAG,-0.0878 ± 0.015
15,ATCTGACA,0.198 ± 0.039
16,AGCTCTCG,-0.116 ± 0.011
17,AATGCCCT,-0.191 ± 0.076
18,AAGAAAGA,-0.288 ± 0.041
19,ACGGTCGG,-0.168 ± 0.012
20,TGATCGCA,0.243 ± 0.019
21,CTAGAAAC,-0.0503 ± 0.068
22,GGTGCCGA,0.363 ± 0.016

row,Sequence,PBM E-score of 8-mer
1,CCACATTC,0.104 ± 0.038
2,GCAGATCC,-0.133 ± 0.056
3,AGGGGGCC,-0.33 ± 0.018
4,CATTAGCA,0.321 ± 0.0074
5,AGGTGACT,0.31 ± 0.015
6,CTTTCCGC,-0.0084 ± 0.099
7,TGACCTAA,-0.228 ± 0.013
8,GATAGACA,-0.0806 ± 0.04
9,CCAGTCGG,-0.144 ± 0.038
10,ATCCTGTG,0.00097 ± 0.019
11,AAGTATGG,-0.227 ± 0.062
12,ATTAGTAC,0.0246 ± 0.099
13,ATGGGCGG,-0.0557 ± 0.086
14,AATAATTA,-0.059 ± 0.03
15,CTAAGATC,-0.116 ± 0.078
16,GGTAGGTA,-0.131 ± 0.00086
17,GCGTCCGA,-0.0224 ± 0.048
18,CCCAATAG,0.0672 ± 0.083
19,AGCGTTTC,-0.135 ± 0.027
20,AGCCTTTG,-0.195 ± 0.034
21,AACGGAAT,0.0581 ± 0.071
22,ACAGCCGA,-0.0462 ± 0.028

row,Sequence,PBM E-score of 8-mer
1,CGAGCACA,-0.145 ± 0.02
2,GAATGTAA,-0.166 ± 0.1
3,CGCGCTAA,0.369 ± 0.0084
4,GCCCGGCC,-0.151 ± 0.028
5,ATTCCAAC,-0.167 ± 0.024
6,AGATTAGG,-0.149 ± 0.045
7,CGTGCGTA,-0.00978 ± 0.00028
8,GCCAACCA,0.123 ± 0.016
9,AGCCGGAA,-0.196 ± 0.015
10,AAACATTC,-0.0525 ± 0.037
11,GGCGGATA,-0.365 ± 0.03
12,AAGGTTAA,-0.185 ± 0.091
13,CGACGACC,0.0145 ± 0.08
14,CGCCTTCC,-0.0214 ± 0.05
15,ACGTAGCA,0.0988 ± 0.0023
16,GACAACTC,0.237 ± 0.024
17,CCATGGTC,-0.0411 ± 0.036
18,ACCCCCTC,-0.00817 ± 0.062
19,ATGCAGAG,-0.123 ± 0.047
20,ATGGCGAA,0.0912 ± 0.034
21,GGCTGAGA,0.052 ± 0.022
22,CGTCCTCA,-0.129 ± 0.043
